Measurements taken from ChEMBL document CHEMBL4888484, “Replenishing the malaria drug discovery pipeline: Screening and hit evaluation of the MMV Hit Generation Library 1 (HGL1) against asexual blood stage Plasmodium falciparum ,using a nano luciferase reporter read-out” (2022).
Values joined by “and” are separate entries in the source; they are usually repeats but may differ in a detail not shown here. Identical values can stand only once. Screen size: about 150,000 compounds; about 540 (0.36%) showed an effect of 50% or more. This is one part of the list.

Tested on: Plasmodium falciparum
Assay: Primary screen in NF54 nanoGlo assay, in single point, at 2uM, 72h; a lower Z score goes with more inhibition
Format: functional, Erythrocyte
Settings: timepoint 72 hour

| Compound | % Inhibition [%] | Z score | % Inhibition (2 µM) |
| --- | --- | --- | --- |
| Cc1cc([C@@H](C#N)C(=O)Nc2ccc(Cl)c(Cl)c2)nc(C)n1 | -9 | 1.07 |  |
| O=C1NC(=O)C2(CCN(C(=O)c3cc(C4CC4)[nH]n3)CC2)N1 | -2 | 0.36 |  |
| Cc1ccc(C(=O)c2ccccc2C(=O)NCc2nncn2C)cc1C | -3 | 0.52 |  |
| CCOC(=O)CN[C@H]1CCCOCC1 | -7 | 0.92 |  |
| CN1CCN(c2nc3c(c(Oc4cccc(F)c4)n2)CN(C(=O)c2ccc(F)cc2F)CC3)CC1 | -5 | 0.64 |  |
| CN(C)C(=O)c1ccc(N(C)C2Cc3ccccc3C2)nc1 | -4 | 0.37 |  |
| CO[C@H]1COC[C@@H]1NC(=O)c1ccncc1Cl | -3 | 0.31 |  |
| CCc1cc(C(=O)N2C[C@@H]3CC[C@H]2CN(Cc2ccc(OC)cc2)C3)ccn1 | -10 | 1.05 |  |
| CCCCn1nc(Cc2ccc(OC)cc2)nc1C1(O)CCN(C)CC1 | -2 | 0.41 |  |
| COc1ccc(-c2nc(CCS(=O)(=O)c3ccc(Cl)cc3)no2)cc1OC | -8 | 0.8 |  |
| Cc1ccc(S(=O)(=O)NC2CC2)cc1C(=O)Nc1cccc(C#Cc2ccccn2)c1 | -5 | 0.56 |  |
| O=S(=O)(Nc1cnc2c(Br)cccn12)c1ccc(C(F)F)cc1 | -8 | 0.92 |  |
| Cn1nc(-c2cccs2)cc1C(=O)N[C@H]1CCN(c2nccn3cnnc23)C1 | -11 | 1.47 |  |
| c1ccc2c(c1)CN(c1nc(C3CC3)ns1)C[C@@H]2n1cccn1 | -23 | 2.39 |  |
| O=C1O[C@H](C(=O)Nc2ccc3c(c2)OC2(CCCCC2)O3)Cc2ccccc21 | -4 | 0.47 |  |
| CCN(CC)C(=O)C[C@@H]1CCNC[C@@H]1Cc1cc(C(C)(C)C)on1 | -14 | 2.27 |  |
| CCc1nc(C)c(CN2CCC[C@H](S(=O)(=O)N(C)C)C2)o1 | -19 | 2.05 |  |
| CC[C@](O)(CNS(=O)(=O)CC)c1ccc(Br)cc1 | 3 | -0.25 |  |
| O=C(c1ccc(Cl)cc1)N1CCN(c2ccc(-c3cccs3)nn2)CC1 | 7 | -0.89 |  |
| CCc1cc(C(=O)N2C[C@H](NC(=O)N(C)C)[C@@H](C(C)C)C2)cs1 | -8 | 1.09 |  |
| c1coc(CNCc2cccc3ccccc23)c1 |  |  | -1% and -5% |

| Compound | % Inhibition [%] | Z score | % Inhibition (2 µM) |
| --- | --- | --- | --- |
| CCc1noc(C)c1C(=O)N1CC[C@@]2(CCCN(Cc3cccc(C)c3)C2)C1 | 6 | -0.83 |  |
| COc1cccc(C(=O)NCC(=O)N2CC[C@H](O)C23CCCC3)c1 | -7 | 0.98 |  |
| N#Cc1cc(NCc2ccsc2)ccc1Cl | -3 | 0.63 |  |
| Cc1nc(CCNc2cc([C@H]3C[C@@H](O)C3)nc(N)n2)sc1C | -3 | 0.29 |  |
| CCN(CC)CCCNC(=O)c1ccc(-c2nc(CN3CCc4ccccc43)c(C)o2)cc1 | 9 | -1.21 |  |
| CN(Cc1cc[nH]n1)C(=O)c1ccn(CC(F)(F)F)n1 | -3 | 0.5 |  |
| Cn1cnc2cc(C(=O)N(c3ccc(F)cc3)C3CCCC3)cnc21 | -4 | 0.56 |  |
| Cc1n[nH]nc1C(=O)N1CC[C@H](Oc2ccccc2)C1 | 1 | -0.19 |  |
| COCCC(C)C(=O)NC1(CNC(=O)CC2CCCC(=O)N2)CCCCC1 (configuration not stated) | 17 | -2.1 |  |
| Cc1nnc(CN2C[C@H](C)Oc3cc(C)c(Br)cc32)o1 | -5 | 0.49 |  |
| c1ccc2nc(N3CCCC4(CCNCC4)CC3)cnc2c1 | 8 | -1.23 |  |
| CCCn1nc(C)cc1CN(C)C(=O)c1cn2ccccc2n1 | 4 | -0.59 |  |
| CCc1cccc(C)c1NC(=O)OCC(F)(F)F | -9 | 0.78 |  |
| Cn1cc(Br)cc1C(=O)NC[C@H](O)c1ccco1 | -3 | 0.32 |  |
| COc1ccccc1-c1ccc(C(=O)NC2CCN(Cc3ccccc3)CC2)c(N(C)C[C@H]2COCCO2)n1 | 13 | -1.73 |  |
| Nn1ccc2c(nnc3ccnn32)c1=O | -11 | 1.43 |  |
| CNC[C@H]1CCCN1S(=O)(=O)c1cc(C)sc1C | -19 | 2.25 |  |
| Cc1cc(C)n(C)c(=O)c1C(=O)NCc1cc(CC(C)C)on1 | -8 | 1.3 |  |
| Cc1ccc(F)c(NC(=O)N2CC[C@H](OCCN3CCCCC3)C2)c1 | -7 | 0.94 |  |
| O=C1CN(C(=O)NCC2(C3CC3)CCC2)C2CCCCC2N1 (configuration not stated) | -1 | 0.18 |  |
| Cn1nc(CC(N)=O)nc1-c1ccc(N2CCOCC2)cc1 | -17 | 1.45 |  |

| Compound | % Inhibition [%] | Z score | % Inhibition (2 µM) |
| --- | --- | --- | --- |
| CCOc1nc(NC[C@H]2CC[C@@H](CO)O2)ncc1Br | -3 | 0.61 |  |
| CN(C(=O)C(=O)N1CCC2(CCOCC2)CC1)c1ccccc1 | -1 | 0.2 |  |
| CNC(=O)c1cccnc1NC[C@@H]1COc2ccccc2C1 | -13 | 1.13 |  |
| O=C1CCN(S(=O)(=O)c2cccc(F)c2)CCCCC[C@@H](C(=O)N2CCc3ccccc3C2)N1 | -13 | 2.56 |  |
| CC(C)Oc1ccc(C(=O)N2CC(C)(C(N)=O)C2)c(Cl)c1 | -1 | 0.13 |  |
| COc1cc2c(cc1CN(C)Cc1noc(C)n1)OCCCO2 | -15 | 2.19 |  |
| Cc1ccc(-c2ncc(C(=O)N(C)Cc3ccccc3)c(N3CCC(C)CC3)n2)cc1 | -2 | 0.33 |  |
| CC1(C)NC(=O)N(CNc2ccc(Br)cc2)C1=O | 36 | -4.63 |  |
| O=C1CCc2cc(NC(=O)c3ccc(-c4ccccc4F)s3)ccc2N1 | -7 | 1.25 |  |
| O=C(Cc1noc2ccccc12)N1CCn2nccc2C1 | -20 | 2.29 |  |
| C[C@H]1CCCN(C(N)=NCCN(C)S(=O)(=O)c2cccs2)C1 | -4 | 0.48 |  |
| Cn1c(CN2CCCC2)nnc1C1CCN(c2cnc3ccccc3n2)CC1 | -3 | 0.6 |  |
| CCOc1cc(C(=O)N2CC3CCCC3C2)ccn1 (configuration not stated) | -6 | 0.73 |  |
| COCCCCN(C)[C@@H](c1ccc(F)cc1)c1ncccn1 | -6 | 1.08 |  |
| Cc1nn(CC(=O)N2CCNC(=O)C23CCCC3)c(C)c1Cl | 3 | -0.39 |  |
| Nc1nc(CCNC(=O)c2ccccc2)n[nH]1 | -17 | 1.92 |  |
| CCC1=NO[C@@H](CNC(=O)Cc2csc(C)n2)C1 | 2 | -0.33 |  |
| COc1cnc(CN2CCC3(CC2)[C@H](O)C[C@@H]3OC)cc1O | -2 | 0.4 |  |
| O=C(NCc1ccco1)c1ccc(Cn2c(=O)c3ccccc3n(Cc3ccc(F)cc3Cl)c2=O)cc1 | -18 | 2.02 |  |
| C=CCn1c(-c2cccc(Cl)c2)cn2cc(C(=O)NCC)nc2c1=O | -9 | 0.82 |  |
| CC(C)CN1C(=O)CC[C@@H]2CN(C(=O)c3ccc4[nH]cnc4c3)CC[C@@H]21 | 2 | -0.29 |  |

| Compound | % Inhibition [%] | Z score | % Inhibition (2 µM) |
| --- | --- | --- | --- |
| Cc1c(C#N)c2ccccc2n1CC(=O)N1CCOC[C@@H]1CC(=O)NCCF | 1 | -0.18 |  |
| CC(C)=CCN1C[C@@H]2CC[C@H]1CN(C(=O)c1[nH]c3c(F)cccc3c1C)C2 | -17 | 1.72 |  |
| CN1[C@@H]2CC[C@H]1CN(S(=O)(=O)c1ccccc1)CC2 | 1 | -0.25 |  |
| CCn1nccc1C(=O)Nc1ccc2c(c1)OCCO2 | -12 | 2.03 |  |
| O=C(CCc1ccsc1)NCc1ccc(N2CCCCC2)nc1 | -6 | 1.11 |  |
| O=C(c1ccc2ncccc2c1)N1CC(c2noc([C@@H]3CCCN3CC3CC3)n2)C1 | 11 | -1.29 |  |
| COCCN1CCCN(C(=O)[C@@]2(COC)CCN(C(=O)OC(C)(C)C)C2)CC1 | 2 | -0.23 |  |
| CNC(=O)[C@@H]1C[C@@H](NCc2ccc(C(F)(F)F)cc2)CN1CC(c1ccccc1)c1ccccc1 | 2 | -0.22 |  |
| Cc1cccc(CC(=O)Nc2cnc(-c3cccnc3)nc2)c1 | -29 | 2.55 |  |
| CCc1nn(Cc2cccnc2N)c(=O)c(C#N)c1CC | -8 | 1.57 |  |
| Cc1ncn(CCNC(=O)[C@@H]2CCc3ccccc32)c1C | -7 | 1.03 |  |
| CC(C)N(CCc1nccs1)C(=O)c1cc[nH]c1C1CCC1 | -4 | 0.78 |  |
| C=CCOc1ccc(CN2CC[C@]3(O)CCN(C(=O)N4CCCC4)C[C@@H]3C2)cc1 | -1 | 0.12 |  |
| Cc1ccccc1-c1nc2nc(C)c(CC(=O)N3CCCCCC3)c(C)n2n1 | 28 | -3.77 |  |
| Cc1ccc(-c2nn(-c3ccccc3)cc2C(=O)N2CCC(C(=O)O)CC2)o1 | 0 | 0.02 |  |
| Cc1ccc(C[C@H](C)Nc2ccnc3c2cnn3C)s1 | -16 | 1.68 |  |
| CC(C)NC(=O)[C@@H]1CC2(CN(C(=O)NCc3ccco3)C2)CN1C | -5 | 0.56 |  |
| O=C(CC1CCCCC1)NC1CCN(Cc2ccncc2Cl)CC1 | -6 | 1.01 |  |
| CCn1ncc(CN2CCCC[C@H]2C(=O)NCC(F)F)n1 | 28 | -3.14 |  |
| COc1ccc(S(=O)(=O)N(C)c2ccnc(C(=O)NCc3ccc(F)cc3)c2)cc1 | -7 | 1.15 |  |
| COCCN(Cc1cc2ccc(OC)cc2nc1N(C)C)C(=O)CCn1nc(C)cc1C | 4 | -0.57 |  |
